According to PubChem BioAssay AID743279 (National Center for Advancing Translational Sciences (NCATS), 2014):
Out of some 360,000 compounds screened, about 17,000 (4.7%) were called active. Inconclusive results, whose numbers are uncertain, are shown with a selection of clear calls. No stated cut-off is given here; in the data, active means activity change below about -50%; inconclusive means mostly about -30% to -49%; inactive means weaker than that.

Assay: qHTS for Inhibitors of Inflammasome Signaling: IL-1-beta AlphaLISA Primary Screen
Settings: THP-1 LPS/ATP IL-1B secretion, 16 h; at 57.5 µM, active compounds read low
Outline: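 Secreted IL-1B measured by AlphaLISA bead assay after 16 h compound exposure of THP-1 cells; compounds (final up to 57.5 uM) added 1 h before LPS (250 ng/mL) and ATP (1.25 mM) stimulation; lower signal means less secretion.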
On the % scale 0 is the no-effect control and ±100 the full control effect.

SMILES | activity change
CC1(C)CC(=O)C=C(Nc2ccc(Br)cc2F)C1 | active: -80.8%
Cc1c(Cc2ccc3c(c2)OCO3)sc(NC(=O)C2CC2)c1C(N)=O | inactive: -19.3%
O=C(Oc1c(CN2CCOCC2)cc(Cl)c2cccnc12)c1ccccc1 | inconclusive: -40.6%
CCCCC(=O)Nc1ccc(NC(=O)c2ccccc2OC)cn1 | inconclusive: -44.3%
O=C(NC1CCN(S(=O)(=O)c2ccccc2)CC1)c1ccc(F)cc1 | inconclusive: -41.4%
O=C(O)C1=C(C(=O)O)C2CCC1C2 | inconclusive: -40.9%
CC(=O)c1sc(NC(=O)c2ccc(C)c(C)c2)nc1C | inconclusive: -44.6%
CCN1C=C(Cc2ccc(OC)cc2)C2=C(C1)C(c1ccc(OC)cc1)C(C#N)=C(N)O2 (stereo not given) | active: -59.9%
CCCOc1ccc(C(=O)Nc2ccc(Cl)cn2)cc1 | inconclusive: -33.5%
CNc1ccc(Br)cc(C(=O)/C=C/c2cc(OC)ccc2OC)c1=O | active: -99.4%
CN(CC(=O)Nc1ccc(F)c(Cl)c1)S(=O)(=O)c1cccc2nsnc12 | inactive: -22.3%
COc1ccc(N2CCN(C(=O)COc3ncnc4ccccc34)CC2)cc1 | inactive: 9.5%
CCOC(=O)c1c(-c2ccccc2Cl)cn2ccccc12 | inactive: 13.2%
O=C(Nc1ccc(Cl)cc1)N(Cc1nc2ccccc2c(=O)[nH]1)Cc1cccs1 | inconclusive: -49.8%
CC1CCCN(C(=O)c2ccc3c(=O)n(Cc4ccc5c(c4)OCO5)c(=S)[nH]c3c2)C1 (stereo not given) | inconclusive: -31.8%
CCOC(=O)CSC1=NC(=O)/C(=C\c2ccc(Cl)cc2)S1 | inconclusive: -36.2%
CO/N=C(/C)CCS(=O)(=O)c1ccccc1 | inactive: 14.6%
CCOC(=O)c1oc2cc(O)cc(O)c2c(=O)c1OCc1ccccc1 | inactive: 34.2%
CCc1nc2ccc(C(=O)Nc3cc(-c4ccccc4)ccc3OC)cn2c1N(CC)CC(=O)N(C)C | inconclusive: -44.4%
CC1(C)CC(=O)c2c(O)cc(OCC(=O)Nc3ccc(S(N)(=O)=O)cc3)cc2O1 | inactive: -3.88%
COCCSc1nnc(NC(=O)CCS(=O)(=O)c2ccccc2)s1 | active: -103%
Nc1ccccc1SC(CC(=O)c1ccccc1)c1ccc([N+](=O)[O-])cc1 (stereo not given) | inconclusive: -31.7%

SMILES | activity change
O=C(CC1SC(N2CCCC2)=NC1=O)Nc1ccc(C(=O)N2CCN(c3cccc(Cl)c3)CC2)cc1 (stereo not given) | active: -50.4%
CCN(CC)c1ccc(/C=N/NC(=O)c2ccc(Br)o2)cc1 | inconclusive: -32.2%
Cc1cccc(NC(=O)c2ccc(N(C)C3CCCCC3)c([N+](=O)[O-])c2)n1 | inconclusive: -31.9%
CCOCCn1c(CN2CCC(Cc3ccccc3)CC2)nc2c1c(=O)n(C)c(=O)n2C | inactive: 39.8%
Cc1ccccc1Nc1nc(Nc2ccccc2C)nc(SC2=NCCS2)n1 | inconclusive: -32.3%
Cc1ccc(Cl)c2sc(N3CCN(C(=O)c4ccco4)CC3)nc12 | inconclusive: -36.6%
Cc1cc(Cl)c2oc(C(=O)N3CCN(C(=O)c4ccco4)CC3)c(C)c2c1 | inactive: -6.86%
O=C(/C=C/c1ccc(F)cc1)NC(=S)N1CCN(c2ccccn2)CC1 | inactive: -2.84%
COc1ccccc1NC(=O)c1cc(Cl)nnc1Cl | active: -97.2%
CSc1ccccc1NC(=O)CN(C)C(=O)Cc1c(F)cccc1Cl | inactive: -3.03%
Cc1ccc(C2=NN(C(=O)CSc3nc(N)cc(N)n3)C(c3ccco3)C2)cc1 (stereo not given) | inactive: -23.3%
CCOC(=O)[C@]12CCC=C1N(Cc1ccc(Cl)cc1Cl)C(=O)[C@H](CC(=O)NCC1CCCCC1)C2 | inconclusive: -41.7%
COc1ccc(-c2cc(C(F)F)n3ncc(C(=O)Nc4ccc(C(=O)N5CCOCC5)cc4)c3n2)cc1 | inconclusive: -45.1%
CCOC(=O)C(NC(=O)c1cccc(Cl)c1)(Nc1sc2c(c1C(N)=O)CCC2)C(F)(F)F (stereo not given) | inactive: 0%
Cc1ccc(Cn2ncc3c(NCCCN(C)C)ncnc32)cc1 | inconclusive: -40.8%
CC(C)c1ccc(C(=O)CN2C(=O)NC3(CCc4ccccc43)C2=O)cc1 (stereo not given) | inconclusive: -44.2%
O=C(CSc1nc2cc(Cl)ccc2c(=O)n1Cc1ccco1)Nc1ccc(S(=O)(=O)N2CCOCC2)cc1 | inactive: -5.21%
COC(=O)[C@H](CCSC)NC(=O)Nc1ccc(S(N)(=O)=O)cc1 | inconclusive: -33.4%
COc1cc(/C=N/NC(=S)Nc2cccc(S(=O)(=O)N(C)C)c2)ccc1O | active: -98%
O=C(NNC(=O)c1cc(-c2ccc(Br)cc2)nc2ccccc12)c1csc(N2CCOCC2)n1 | inconclusive: -32.9%
CCOC(=O)c1cccc(NC(=O)CSc2nnc(-c3ccoc3C)n2CCOC)c1 | inconclusive: -34.9%
CC(=O)NC(c1ccccc1)c1nc(-c2cc3ccccc3o2)cs1 (stereo not given) | inactive: 12.3%

SMILES | activity change
C/C(=C/c1ccccc1)C(=O)N1CCC(C)CC1 | inconclusive: -31.9%
COc1ccc(-n2c(-c3ccc(F)cc3)cnc2SCC(=O)NCc2ccco2)cc1 | inconclusive: -30.9%
CC1CN(c2snnc2C=C2C(=O)OC(C)(C)OC2=O)CC(C)O1 (stereo not given) | active: -80%
c1ccc2nc3c(nc2c1)c1ccccc1n3CCN1CCOCC1 | active: -63.2%
CCC1CCCCN1CCCNC(=O)CSc1nc2nc(C)c(Cc3ccc(C)cc3)c(C)n2n1 (stereo not given) | inconclusive: -33.7%
COCCCn1c(SCc2nnc(-c3ccc(OC)c(OC)c3)o2)nc2ccccc2c1=O | inconclusive: -37.6%
Clc1cccc(OCc2nc(-c3ccncc3)n[nH]2)c1 | inactive: 17.6%
COc1cccc(CNc2ncc(Br)cc2Br)c1O | inconclusive: -41.7%
Cc1ccc(C)c(OCc2cc(C(=O)N3CCc4sccc4C3)no2)c1 | inconclusive: -43.5%
CCOC(=O)c1sc(=NC(=O)c2cc(OC)c(OC)c(OC)c2)n(C)c1C | inconclusive: -38.2%
COc1ccc([C@H]2CC(=O)C=C(c3ccc4ccn(C)c4c3)C2)cc1 | inconclusive: -32.9%
COc1cc(CNC2CCCCC2)c(Br)cc1OC1CCCC1 | active: -64.3%
CN(C1CCCCC1)S(=O)(=O)c1cc2c(cc1Cl)NC(=O)CO2 | inactive: 11.2%
CN1CCN(c2nc3ccccc3nc2C(C#N)C(=O)OC2CCCCC2)CC1 (stereo not given) | inconclusive: -36.7%
O=C(Nc1ccc(CN2CCOCC2)cc1)c1ccc(-c2ccc(Br)cc2)o1 | active: -79.2%
CC1=C(C(=O)OC(C)C)C(C)C(C(=O)OC(C)C)=C(C)N1 | inconclusive: -46.1%
COc1ccc(C(=O)NC2CC2)cc1OC1CCN(Cc2ccc(SC)cc2)CC1 | inconclusive: -35.5%
Cc1c(-c2ccc(OCCN3CCOCC3)cc2)c(=O)oc2ccc3ccccc3c12 | inactive: 14.5%
Cc1cc2cc(CCNC(=O)c3cccs3)c(=O)[nH]c2cc1C | inconclusive: -42.2%
COc1ccc(C(C(=O)NC(C)(C)C)N(C(=O)CCC(=O)Nc2cc(C)on2)c2ccc(C)c(C)c2)cc1 (stereo not given) | inconclusive: -31.2%
COC(=O)COc1ccc(S(=O)(=O)Nc2ccc3c(c2)OCCO3)cc1C | active: -73.4%
Cc1nc2ccc(NC(=O)c3sccc3C)cc2s1 | inconclusive: -36%

SMILES | activity change
Cc1ccc(NC(=O)C(=Cc2ccc(C(=O)O)cc2)C(=O)Nc2ccc(C)cc2C)c(C)c1 | active: -100%
CC1(C)NC(=O)N(CC(=O)N2CCN(S(=O)(=O)c3cc(Cl)ccc3Cl)CC2)C1=O | inactive: -6.17%
CCc1cccc(OCC(=O)Nc2ccc(C(=O)O)cc2NC(=O)COc2cccc(CC)c2)c1 | inconclusive: -38.8%
C[C@@H](C(=O)Nc1ccc2ccccc2c1)[C@H]1C[C@]1(C)[C@H](NC(=O)c1cnccn1)c1ccccc1 | active: -52%
COc1cc(S(=O)(=O)NCc2ccncc2)c(OC)cc1Br | inactive: 23.9%
Cc1cccc(NC(=O)c2cc3n(n2)C(C(F)(F)F)CC(c2ccc4c(c2)OCO4)N3)c1 (stereo not given) | inconclusive: -36.7%
CCN1CCc2c(sc(NC(=O)Cc3ccccc3)c2C(=O)OC)C1 | inconclusive: -33.5%
O=C(c1ccco1)N1CCN(c2ccc(Cl)c(Cl)c2)CC1 | inconclusive: -41.9%
COc1ccc(Nc2cc(Nc3cccc(OC)c3)ncn2)cc1 | inactive: -14.3%
O=C(NCc1ccc(Cl)c(Cl)c1)c1cc(C2CCCCN2C(=O)c2ccccc2)on1 (stereo not given) | inconclusive: -36%
COc1ccc(-n2c(-c3ccc(Br)cc3)c[n+]3c2CCC3)cc1 | active: -66.6%
Cc1nc2c(OCc3ccc(OC(F)F)cc3)cccn2c1N(C)C(=O)CCC1CCCC1 | active: -57.7%
Cc1[nH]n(-c2ncc(-c3ccc(Cl)cc3)s2)c(=O)c1C(c1ccc(Cl)cc1)C(C#N)C#N (stereo not given) | inconclusive: -49.4%
CCc1ccc(OCCNc2cc(N3CCNC(C)C3)ccc2[N+](=O)[O-])cc1 (stereo not given) | active: -67.1%
COc1ccc(C(=O)c2c(C)c3ccccc3n2CC(O)CNC(C)C)cc1 (stereo not given) | inconclusive: -43.6%
O=c1[nH]c(C2CCCN(S(=O)(=O)c3ccccc3Cl)C2)nc2c1nnn2Cc1ccc2c(c1)OCCO2 (stereo not given) | inconclusive: -35.2%
Cc1c(C)c(C)c(CO/N=C/c2cccs2)c(C)c1C | inconclusive: -32.4%
CCC(C(=O)NC1CCCC1)N(Cc1cccs1)C(=O)Cn1nnc(-c2ccc(OC)c(OC)c2)n1 (stereo not given) | inconclusive: -40%
COc1ccc2c(c1OC)C(=O)OC2Nc1nc(-c2ccccc2)cs1 (stereo not given) | active: -117%
